From PubChem BioAssay AID1345083 (National Center for Advancing Translational Sciences (NCATS), 2018)
Where “and” joins values, the source holds several entries; their conditions need not be identical. Identical values can stand only once. The campaign covered roughly 94,000 compounds. About 6,200 (6.6%) were called active. The shares of active, inactive and inconclusive entries below differ from those in the screen. The call rests on the fitted dose curve; in most records, active means well fitted inhibition curve with a large enough effect; inconclusive means small, poorly fitted or top-dose-only effect; inactive means flat fitted curve, though single readings scatter. Potencies beside an inconclusive call are fits to weak or partial responses and may not hold up.

Assay: Cytotoxic Profiling in HEK 293 Cell Line of Diverse Libraries Using Quantitative High-Throughput Screening; further: nearly all actives have a fitted effect of over 60% in size
Settings: HEK 293 viability, ATP luminescence (CellTiter-Glo), 48-72 h; series mostly up to 115 µM
How it was run: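 HEK 293 cells at 250 cells/well were exposed to compounds by pintool transfer for 48 or 72 hr at 37 degree Celsius, 5% CO2. Viability was read as ATP-coupled luminescence with CellTiter-Glo after 10 min at room temperature.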
Potency means the concentration at half of the fitted maximal effect; tags describe the fitted curve by direction and shape.

Structure (SMILES)	Potency
CN(C)c1ccc(C(=O)N2CCC(n3cc(-c4nc(C5CC5)no4)nn3)C2)cc1 (stereo not given)	inconclusive: 50.1 µM [inhibitor, partial curve, poor fit]
Cc1ccc(F)cc1NC(=O)c1cc(-c2ccc[nH]2)n[nH]1	inconclusive: 89.1 µM [inhibitor, single point]
Cc1cc(C)cc(-c2nc(C3CC(=O)N(c4ccc(Cl)cc4)C3)no2)c1 (stereo not given)	inconclusive: 50.1 µM [inhibitor, partial curve, poor fit]
NC(=O)Cn1ccc2cc(OCC3CCN(c4cc(NC5CC5)ncn4)CC3)cnc21	active: 25.1 µM
O=C(Cc1ccc(F)cc1)NCCNC(=O)c1ccc(-c2cccc(C(F)(F)F)c2)cc1	inconclusive: 50.1 µM [inhibitor, partial curve, poor fit]
COc1ccc(S(=O)(=O)NCC2Cn3cccc3C(=O)N2C)cc1 (stereo not given)	inactive
CCN1c2cc(C(=O)NCc3cccs3)ccc2C(=O)N2CCCCC21 (stereo not given)	inconclusive: 89.1 µM [inhibitor, single point]
CCOC(=O)c1cccc(NC(=O)O[C@@H]2CO[C@H]3[C@@H]2OC[C@@H]3NS(=O)(=O)c2cc(OC)ccc2OC)c1	inconclusive: 79.4 µM [inhibitor, partial curve, poor fit]
COc1nc2nc(CC3CC3)n(C)c2cc1-c1ccc(CO)cc1	inconclusive: 112 µM [inhibitor, single point]
O=C1NCc2ccccc2CC12CCN(Cc1ccc(Br)cn1)CC2	inactive
CCC#CCN1CCc2ccccc2N(CC(O)COCc2ccco2)CCC1=O (stereo not given)	inconclusive: 28.2 µM [inhibitor, partial curve, poor fit]
COc1ccc(-c2cc(N3CCCC(NC(=O)c4ccc(F)c(Cl)c4)C3)n[nH]2)cc1 (stereo not given)	inconclusive: 20 µM [inhibitor, full curve, poor fit]
Cc1nn(-c2ccccc2)c2c1C(C1CC1)N(CC1CN(C(=O)c3ccc(Cl)nc3)C1)C2=O (stereo not given)	inconclusive: 89.1 µM [inhibitor, single point]
COc1ccc(C(=O)N2C[C@@H](F)[C@@H](OCc3nc4ccccc4[nH]3)C2)cc1	inconclusive: 35.5 µM [inhibitor, partial curve, poor fit]
CC(=O)Nc1cccc(-c2nc(-c3c(C)noc3C)cc3cc(C)oc23)c1	active: 79.4 µM
CCc1cccc(NC(=O)CN2C(=O)NC(c3ccc(Cl)cc3)C3=C2COC3=O)c1 (stereo not given)	inconclusive: 10 µM [inhibitor, full curve, poor fit]
Clc1ccc(CN2CC[C@H](c3nc4cc(Cl)ccc4o3)C2)cc1	inconclusive: 126 µM [inhibitor, partial curve, poor fit]
Cc1cn2nc(-c3nc(C4CCCN(C(=O)c5ccccc5)C4)no3)cc2c(=O)[nH]1 (stereo not given)	inactive
COc1ccc(NC(=O)Cn2c(-c3ccc(Cl)cc3)nc(C)cc2=O)cc1OC	inconclusive: 70.8 µM [inhibitor, single point]
Cn1ccc(C(=O)N2CC(CNc3ccccc3)C3(C2)CN(c2ccccc2)C3)n1 (stereo not given)	active: 63.1 µM
COc1ccccc1-c1cccc(C(=O)N2CCN(C(=O)C3CC3)CC2)c1	inconclusive: 50.1 µM [inhibitor, partial curve, poor fit]
CC1(c2ccccc2)N(Cc2ccccc2F)C(=O)OC12CCN(C(=O)Cc1ccc(O)cc1)CC2 (stereo not given)	inconclusive: 79.4 µM [inhibitor, partial curve]

Structure (SMILES)	Potency
COCCCn1c(=O)c(C(=O)N2CCN(C(=O)c3ccccc3Cl)CC2)nc2cccnc21	inactive
CCn1cc(S(=O)(=O)N2CCC(F)(c3nc(-c4ccncc4)no3)CC2)cn1	active: 44.7 µM
COc1ccc(NC(=O)C2(C)CN(C)Cc3ccc(Nc4cccc(OC)c4)nc32)cc1 (stereo not given)	inconclusive: 50.1 µM [inhibitor, full curve, poor fit]
COC[C@@H]1CN(C(=O)COc2cccc(C)c2)C[C@H]1c1nc(C)no1	inconclusive: 89.1 µM [inhibitor, single point]
COCC(C)NC(=O)c1csc2nc(-c3cccc(C(F)(F)F)c3)cn12 (stereo not given)	inconclusive: 50.1 µM [inhibitor, partial curve, poor fit]
O=C(COc1ccccc1)N1CCc2c(n(Cc3cccnc3)n(CCc3ccccc3)c2=O)C1	inactive
CNC(=O)[C@@H]1C[C@H](n2cc(CNS(=O)(=O)c3ccc(C)cc3F)nn2)CN1	inactive
O=C(NCCN1CCCCC1)C1(CCO)CCN(c2ncccn2)C1 (stereo not given)	inconclusive: 39.8 µM [inhibitor, partial curve, poor fit]
COc1ccc(OC)c(CN2CC[C@@H]3OCC(=O)N(Cc4c[nH]c5ccccc45)[C@H]3CC2)c1	inconclusive: 79.4 µM [inhibitor, single point]
Cc1ccc2c(ccn2CCNC(=O)C[C@H]2NC(=O)c3ccccc3NC2=O)c1	inactive
COc1ccc(CNC(=O)[C@@H]2CCC[C@@H](NC(=O)NC3(c4ccccc4)CCOCC3)CN(C)C(=O)C2)cc1	inactive
Cn1ccc(C(=O)N2CC3ON=C(C(=O)N4CCN(c5ncccn5)CC4)C3C2)n1 (stereo not given)	inactive
O=[S+]([O-])(NC1CCN(c2ccnc3ccnn23)CC1)c1ccccc1	inconclusive: 56.2 µM [inhibitor, partial curve, poor fit]
Cn1ncc2c(C(=O)NCc3ccccc3F)cc(-c3ccccc3C(F)(F)F)nc21	active: 39.8 µM
CC(=O)Nc1cccc(-c2nc(-c3c(C)noc3C)cc3cc(CO)oc23)c1	inconclusive: 89.1 µM [inhibitor, partial curve]
O=C(NCCCc1ccccc1)c1n[nH]c2c1CN(C(=O)C1CC1)CC2	active: 11.2 µM
CN1C(=O)c2cccn2CC1C(=O)NC1CC1 (stereo not given)	inactive
COC1CN(c2cccc(F)c2)C12CCN(C(=O)NCC(C)C)CC2 (stereo not given)	inconclusive: 100 µM [inhibitor, single point]
CC(C)C(=O)N1Cc2ccccc2CC2(CCCN(CC3CCNC3)C2)C1 (stereo not given)	inconclusive: 89.1 µM [inhibitor, single point]
O=C1CC2(CCN(Cc3cccnc3)CC2)Oc2cc(Cl)ccc21	inconclusive: 50.1 µM [inhibitor, partial curve, poor fit]
C[C@@H]1C(=O)O[C@H]2[C@H]1CC[C@@]1(C)Cc3sc(NCc4ccccc4)nc3[C@@H](C)[C@H]21	inconclusive: 20 µM [inhibitor, full curve, poor fit]
NCc1ccc(-c2cc(C(F)(F)F)ccc2Cl)cc1	active: 28.2 µM

Structure (SMILES)	Potency
CNC(=O)[C@@H]1CN(C(=O)C2CC=CC2)C[C@H]1CO	inactive
COc1ccc(C(=O)N2CCC3(CC2)NC(=O)N(Cc2ccc(C)cc2)C3=O)cc1	inactive
COCCNC(=O)c1c(C)noc1-c1cc(OC)c(OC)c(OC)c1	inactive
O=C(c1cccc(Cl)c1)N1CCC2(C1)C(=O)N(CCc1ccccc1)c1ccccc12 (stereo not given)	active: 22.4 µM and active: 28.2 µM
C[C@H]1[C@@H]2[C@@H](O)C([C@H](C)C(=O)N(C)Cc3ccccc3)CC[C@@]2(C)CC[C@@H]1NC(=O)c1ccncc1 (stereo not given in full)	inconclusive: 63.1 µM [inhibitor, partial curve, poor fit]
CN1CC(=O)N(c2cccnc2)Cc2c1ncnc2N1CCCCC1	inactive
O=C1CCN(Cc2ccc(F)cc2F)CCCC(c2nc(-c3cnccn3)no2)CCN1 (stereo not given)	inconclusive: 100 µM [inhibitor, single point]
COc1ccccc1CN1CCC(N2C(=O)c3c(c(C)nn3-c3ccccc3)C2C2CC2)CC1 (stereo not given)	inactive
CCc1cccc(NC(=O)C2CCCN(c3cnn(Cc4ccccc4)c(=O)c3)C2)c1 (stereo not given)	inconclusive: 50.1 µM [inhibitor, partial curve, poor fit]
CN(c1ccccc1)c1ccc2c(n1)CN(CCOc1ccccc1)C(=O)CO2	inconclusive: 126 µM [inhibitor, single point]
COc1ccccc1N1CCCc2ncc(C(=O)NCCOc3ccccc3)cc21	active: 100 µM
CCCCCNC(=O)C1CCCN(Cc2cccc(-c3ccsc3)c2)C1 (stereo not given)	active: 31.6 µM
O=C(NCc1ccc2c(c1)OCO2)C1CCCN1Cc1ccc(-c2cncnc2)cc1 (stereo not given)	inconclusive: 89.1 µM [inhibitor, single point]
O=C(Nc1ccc(F)c(F)c1)C1CCN(C(=O)c2ncn3c2COC(c2ccc(F)cc2)C3)CC1 (stereo not given)	inconclusive: 17.8 µM [inhibitor, full curve]
COc1ccc(-c2noc([C@@H]3Cc4nc[nH]c4CN3Cc3ccccc3)n2)cc1	inconclusive: 126 µM [inhibitor, partial curve, poor fit]
CC#CCn1cc2c3c(cccc31)[C@H](CC(C)C)N[C@H](C(=O)NCCN(C)C)C2	active: 28.2 µM
Nc1cccc(-c2ccc(N3CCOCC3)nn2)c1	inconclusive: 44.7 µM [inhibitor, full curve, poor fit]
Cc1nnc2ccc(N3CCC(NC(=O)C4CC4)CC3)nn12	inactive
O=C(c1cccs1)N1CCCC(n2cc(-c3nc(-c4ccccc4)no3)nn2)C1 (stereo not given)	inconclusive: 50.1 µM [inhibitor, partial curve, poor fit]
CCc1noc(-c2cn(C3CCN(C(=O)c4cc(Cl)ccc4OC)CC3)nn2)n1	inconclusive: 89.1 µM [inhibitor, single point]
Cc1cccc(CN2CCCC(O)(CNCc3cccc(F)c3)C2=O)c1 (stereo not given)	inconclusive: 79.4 µM [inhibitor, partial curve, poor fit]
